Test results published in PMC3124571 (Biochemical pharmacology, 2011).

Tested on: baboon placental microsomes
Assay: Biotransformation of bupropion by baboon placental microsomes
Conditions: bupropion 250 µM, 40 min

Compound	percent of the sum of the three metabolites formed by placental microsomes
C[C@H](NC(C)(C)C)[C@@H](O)c1cccc(Cl)c1 [TB, threohydrobupropion]	82%
CC(NC(C)(C)C)C(O)c1cccc(Cl)c1 (centres unmarked) [EB, erythrohydrobupropion]	18%
